In PubChem BioAssay (NCI):
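Tested at 5 concentrations; 48 h exposure; 96-well plates; endpoints linearly interpolated, else capped at highest concentration. The concentration for 50% growth inhibition is given as GI50. The concentration for full growth arrest is given as TGI.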

Test system: NCI-H322M lung
Test: inhibition of tumour cell growth, NCI panel, 48 h

Cc1ccc2ccc3ccc(C)nc3c2n1.Cc1ccc2ccc3ccc(C)nc3c2n1.Oc1c(Cl)cc(Cl)c2ccc(CN3CCCCC3)nc12.[Ru]
GI50: 539 nM
TGI: 3230 nM
